From PubChem BioAssay AID1476 (National Center for Advancing Translational Sciences (NCATS), 2009)
Among all 200,000 compounds or so, about 4,500 (2.2%) were called active. The shares of active, inactive and inconclusive entries below differ from those in the screen. Calls come from the whole dose curve; as a rule, active = well fitted inhibition curve with a large enough effect; inconclusive = small, poorly fitted or top-dose-only effect, or effect the other way; inactive = flat fitted curve, though single readings scatter. Potencies beside an inconclusive call are fits to weak or partial responses and may not hold up.
Note: nearly all actives have a fitted effect of over 40% in size.
Potency is the fitted concentration of half-maximal effect; tags give direction and shape of the fitted curve.
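Throughout, for max response, negative = inhibition: plate controls were enzyme without inhibitor for no effect and buffer without enzyme for full effect.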

Each compound was assayed against Cruzipain (Trypanosoma cruzi) (UniProt P25779) (assay: qHTS Assay for Promiscuous and Specific Inhibitors of Cruzain (without detergent)). Conditions: purified cruzain, Z-FR-AMC fluorescence, no detergent.
Sequence of UniProt P25779 (P25779 whole entry, looked up): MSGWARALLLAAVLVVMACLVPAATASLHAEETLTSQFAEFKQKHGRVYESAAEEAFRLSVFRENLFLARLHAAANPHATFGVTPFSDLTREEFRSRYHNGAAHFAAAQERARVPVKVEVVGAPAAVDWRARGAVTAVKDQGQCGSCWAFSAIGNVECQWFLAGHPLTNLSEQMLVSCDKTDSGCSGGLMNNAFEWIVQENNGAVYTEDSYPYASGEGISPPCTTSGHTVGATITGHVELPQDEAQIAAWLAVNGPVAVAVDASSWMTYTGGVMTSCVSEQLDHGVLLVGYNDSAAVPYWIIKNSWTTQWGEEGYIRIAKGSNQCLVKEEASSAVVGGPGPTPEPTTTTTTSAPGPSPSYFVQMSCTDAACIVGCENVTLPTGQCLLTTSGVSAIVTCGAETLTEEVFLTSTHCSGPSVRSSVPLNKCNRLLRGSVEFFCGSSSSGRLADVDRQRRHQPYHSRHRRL
In short: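 Purified cruzain at 1.5 nM, pre-incubated 15 min with compound at room temperature in 100 mM sodium acetate pH 5.5, 5 mM DTT, 0.00005% Triton X-100. Reaction started with 2 uM Z-FR-AMC; AMC fluorescence increase over 60 s gives rate.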
With `COc1cccc(N2CCN(C(=O)c3ccc(CS(=O)c4cccc(Cl)c4)o3)CC2)c1` (stereo not drawn) the max response, negative = inhibition was inactive: 2.93%. For `CC(C)Oc1ccc(CNC(=O)c2ccc3nc(SCc4ccc(F)cc4)n(C)c3c2)cc1`, the max response, negative = inhibition was inconclusive: 31.4% [activator]. In the case of `Cn1nc(-c2ccc(Cl)cc2)c2cc(C(=O)N3CCN(c4ccccc4)CC3)sc21`, the Potency is reported as inconclusive: 39.8 µM [inhibitor, single point]. For `CC1CCN(c2oc(-c3ccccc3F)nc2C#N)CC1`, the Potency was inconclusive: 12.6 µM [activator, partial curve]. In the case of `CCOC(=O)c1c(NC(=O)C(F)(OC)C(F)(F)F)sc(C(=O)N2CCCCC2)c1C` (stereo not drawn), the Potency is reported as inconclusive: 25.1 µM [activator, partial curve]. In the case of `C/C(=N\Nc1nc2c(s1)CCCC2)c1ccccc1`, the Potency is reported as inconclusive: 1 µM [inhibitor, full curve]. For `CN(C)S(=O)(=O)Nc1ccc(-c2cn3ccsc3n2)cc1`, the max response, negative = inhibition was inactive: -8.5%. With `O=C(CSCc1cnn(-c2ccccc2)c1-n1cccc1)NCc1ccccc1F` the Potency was inconclusive: 31.6 µM [inhibitor, single point]. With `Cc1cc(-n2c(=O)c(C#N)cc3c(=O)n4ccccc4nc32)no1` the Potency was inconclusive: 25.1 µM [inhibitor, single point]. In the case of `COc1ccc(COc2cc(-c3cccc(OC)c3)nc3ccc(NC(C)=O)cc23)cc1`, the Potency is reported as inconclusive: 25.1 µM [activator, single point]. `O=C1CC(/C=C/c2ccccc2)(C(=O)NC2CCCC2)N1c1ccc(S(=O)(=O)N2CCCC2)cc1` (stereo not drawn) was tested, and the Potency was inconclusive: 25.1 µM [inhibitor, single point]. With `COc1ccc(S(=O)(=O)N2CCc3ccccc32)cc1C(=O)OCc1c(C)noc1C` the Potency was inconclusive: 39.8 µM [activator, single point]. `CCC(=O)/C=C/C1C(C)=CCCC1(C)C` (stereo not drawn) was tested, and the max response, negative = inhibition was inactive: -1.48%. `Cc1ccc(-n2c(=O)[nH]cc(C(=O)Nc3ccc4c(c3)OCCO4)c2=O)cc1C` was tested, and the Potency was inconclusive: 39.8 µM [activator, single point]. With `COCCCNC(=O)Cn1nc(N2CCN(c3ccccc3)CC2)ccc1=O` the max response, negative = inhibition was inactive: 1.68%. With `O=C(CCCCn1c(=O)[nH]c2ccccc2c1=O)N1CCN(c2cccc(C(F)(F)F)c2)CC1` the Potency was inconclusive: 31.6 µM [activator, single point]. In the case of `COC(=O)[C@@]1(Cc2ccc(F)cc2)[C@H]2c3cc(C(=O)N(C)C)n(Cc4ccc(C(F)(F)F)nc4)c3C[C@H]2CN1C(=O)c1ccccc1`, the Potency is reported as inconclusive: 20 µM [activator, partial curve]. With `CC[C@H](C(=O)[C@H](C)[C@H](O)[C@H](C)CCc1ccc(C)c(O)c1C(=O)O)[C@H]1O[C@](CC)([C@@H]2CC[C@@](O)(CC)[C@H](C)O2)C[C@H]1C` the Potency was inconclusive: 6.31 µM [activator, partial curve]. With `COc1cccc2sc(NC(=O)CS(=O)(=O)c3ccc(C)cc3)nc12` the Potency was inconclusive: 31.6 µM [inhibitor, single point]. With `Cc1ccc(Cl)cc1N1CCN(C(=O)Cc2cn(C)c3ccccc23)CC1` the Potency was inconclusive: 31.6 µM [activator, single point]. `Cc1cc(C)c(S(=O)(=O)N2CCN(c3ccc([N+](=O)[O-])c(NCC4CCCO4)c3)CC2)c(C)c1` (stereo not drawn) was tested, and the Potency was inconclusive: 39.8 µM [inhibitor, single point]. `O=C(COc1ccccc1Cl)Nc1nnc(S(=O)(=O)N2CCCC2)s1` was tested, and the Potency was inconclusive: 5.01 µM [inhibitor, full curve, poor fit]. In the case of `CCCCN(CC)C(=O)CSc1nc2n[nH]c(C)c2c(=N)n1-c1cccc(C)c1`, the Potency is reported as inconclusive: 39.8 µM [activator, single point]. With `COc1cccc2c1cc1c(=O)n(CC(=O)N3CCN(c4cccc(C(F)(F)F)c4)CC3)nc(C)n12` the max response, negative = inhibition was inactive: -3.57%. For `Cc1ccc(CN(CC(=O)N/N=C/c2ccccc2[N+](=O)[O-])S(=O)(=O)c2ccc(C)cc2)cc1`, the Potency was inconclusive: 31.6 µM [inhibitor, single point]. With `Cc1nn(C(C)C(=O)NC2CCC(C)CC2)c(=O)c2c1sc1ccccc12` (stereo not drawn) the max response, negative = inhibition was inactive: 1.33%. In the case of `Cc1ccc(NC(=O)c2ccc(OC(=O)c3cc4ccccc4o3)cc2)cc1`, the Potency is reported as active: 7.94 µM. In the case of `COc1ccc(S(=O)(=O)c2cnc3cc(OC)c(OC)cc3c2N2CCCC(C)C2)cc1` (stereo not drawn), the Potency is reported as inconclusive: 20 µM [activator, partial curve]. `COc1ccccc1C(=O)N(Cc1nc(-c2cccc(C)c2)no1)C(C)C` was tested, and the max response, negative = inhibition was inactive: 10.6%. `CC1CN(C(=O)CCC(=O)NCc2cccc(Cl)c2)c2ccccc2S1` (stereo not drawn) was tested, and the max response, negative = inhibition was inactive: 2.92%. With `COc1cccc(C2NC(=S)NC3=C2CCc2ccccc23)c1` (stereo not drawn) the Potency was inconclusive: 39.8 µM [inhibitor, single point]. With `Cc1cc(/C=C2/C(=O)NN(c3ccccc3)C2=O)c(C)n1-c1cccc(O)c1` the Potency was active: 25.1 µM. `CCOC(=O)N1CCN(C(=O)CSc2nc(-c3cccc(C)c3)ns2)CC1` was tested, and the Potency was inconclusive: 25.1 µM [activator, partial curve]. With `COc1ccc(N(CC(=O)NC(C)c2ccccc2)S(=O)(=O)c2c(C)nn(C)c2C)cc1` (stereo not drawn) the Potency was inconclusive: 31.6 µM [activator, single point]. With `Cc1ccccc1CN1C(=O)c2ccccc2Sc2ccc(C(=O)NC3CCCCC3)cc21` the max response, negative = inhibition was inactive: -13.3%. For `CCCCc1ccc(NC(=O)c2cc(-c3ccc(C)c(F)c3)on2)cc1`, the Potency was inconclusive: 12.6 µM [activator, partial curve]. For `Cn1c(O)c(C2=c3ccccc3=NC2=O)sc1=Nc1ccc(Cl)cc1`, the Potency was active: 25.1 µM. For `Cc1ccc(NC(=O)CN2C(=O)CCc3ccccc32)cc1C`, the max response, negative = inhibition was inactive: -22.1%. `C/C(=N/NC(=O)c1ccoc1C)C12CC3CC(CC(C3)C1)C2` was tested, and the max response, negative = inhibition was inactive: -6.89%. With `CCOc1cc2nc(-c3ccc(OC)c(OC)c3)nc(N3CCOCC3)c2cc1OC` the Potency was inconclusive: 39.8 µM [activator, single point]. With `CCOc1cccc2sc(N3CCN(C(=O)c4ccc5c(c4)CCCC5)CC3)nc12` the max response, negative = inhibition was inactive: -17.5%. `Cc1cccc(Nc2nnc(SCC(=O)NC(=O)Nc3ccc4c(c3)OCCO4)s2)c1` was tested, and the Potency was active: 15.8 µM. `CCOC(=O)c1c(S(=O)(=O)N2CCC(C(=O)NCc3cccc(C)c3)CC2)c(C)n(C)c1C` was tested, and the Potency was inconclusive: 31.6 µM [activator, single point]. With `COc1ccc(Cn2c(=O)n(-c3ccc(F)c(Cl)c3)c(=O)c3c2c2cc(OC)ccc2n3C)cc1` the max response, negative = inhibition was inactive: 6.61%. In the case of `Cc1ccc(Oc2nc3ccccn3c(=O)c2/C=C(\C#N)C(=O)Nc2c(C)n(C)n(-c3ccccc3)c2=O)c(C)c1`, the Potency is reported as inconclusive: 31.6 µM [activator, single point]. `Cc1ccc(S(=O)(=O)N2CC=C(c3c(C)n(C)c4ccccc34)CC2)cc1` was tested, and the Potency was inconclusive: 31.6 µM [inhibitor, single point]. For `Cc1ccc(-n2nc(C(=O)Nc3ccc(F)cc3Cl)c(=O)n(C)c2=O)cc1`, the max response, negative = inhibition was inactive: -3.01%. In the case of `CCCCNc1nc(-c2ccccc2)nc(-n2ccnc2)n1`, the Potency is reported as inconclusive: 39.8 µM [inhibitor, single point]. In the case of `CCN(CC)S(=O)(=O)c1ccc(NC(=O)c2cc3ccc4cccnc4c3[nH]2)cc1`, the max response, negative = inhibition is reported as inactive: -26.5%. For `Cc1cc(N2CCN(C)CC2)nc2ccc(NC(=O)c3ccc(C(C)(C)C)cc3)cc12`, the Potency was inconclusive: 39.8 µM [activator, single point]. `CCOC(=O)N1CCN(C(=O)CSc2nc3c([nH]c4ccccc43)c(=O)n2C)CC1` was tested, and the Potency was inconclusive: 31.6 µM [inhibitor, single point]. For `Cn1cnnc1Sc1cc(N2CCN(S(=O)(=O)c3ccccc3)CC2)ccc1[N+](=O)[O-]`, the Potency was inconclusive: 39.8 µM [activator, single point]. `O=C(CSc1nc(=O)[nH]c2c1CCCC2)Nc1ccc(Cl)c(Cl)c1` was tested, and the max response, negative = inhibition was inactive: -8.21%. `Cc1nn(Cc2ccccc2)c(Cl)c1C(=O)NCc1ccc(C)n1C` was tested, and the Potency was inconclusive: 39.8 µM [activator, single point]. In the case of `Cc1ccn2c(Nc3c(C)cccc3C)c(-c3ccsc3)nc2c1`, the Potency is reported as inconclusive: 39.8 µM [inhibitor, single point]. With `COc1ccc(N(Cc2ccccc2)S(=O)(=O)c2cccc(C(=O)NC3=NCCS3)c2)cc1` the Potency was active: 25.1 µM. `CCN(CC)C(=O)c1ccc2c(c1)N(Cc1c(F)cccc1Cl)C(=O)c1ccccc1S2` was tested, and the max response, negative = inhibition was inactive: -5.73%. In the case of `COc1cccc(-c2nnc(-c3ccc(C(F)(F)F)cc3)o2)c1OC`, the Potency is reported as inconclusive: 39.8 µM [activator, single point]. With `O=C1CC(N2C(=O)/C(=C/C=C/c3ccccc3)SC2=S)C(=O)N1c1ccccc1` (stereo not drawn) the Potency was active: 15.8 µM. With `COc1cc2[nH]c(=O)n(CCCCCC(=O)N3CC=C(c4ccccc4)CC3)c(=O)c2cc1OC` the Potency was inconclusive: 31.6 µM [activator, partial curve]. `Cc1nc2sc(C(c3cccs3)N3CCN(c4cccc(Cl)c4)CC3)c(O)n2n1` (stereo not drawn) was tested, and the Potency was inconclusive: 31.6 µM [activator, single point]. In the case of `COc1ccccc1Nc1nnc(SCC(=O)NC(=O)Nc2ccc3c(c2)OCCO3)s1`, the Potency is reported as inconclusive: 39.8 µM [inhibitor, single point]. `O=C(N/N=C/c1cccc(Cl)c1Cl)Nc1ccccc1` was tested, and the Potency was inconclusive: 39.8 µM [inhibitor, single point].
